Data as given in patent publication US10358436B2, “Kinase inhibitors and method of treating cancer” (University Health Network, priority 2010, dated 2019).

Legend:
Assay in all cases: cells
[1] = tested on: SW620 colon cancer cell line; details: Homo sapiens, SW-620, 120 h, read-out: Cell Line GI50 Range SW-620
[2] = tested on: HCC1954 basal breast cancer cell line; details: Homo sapiens, HCC1954, 120 h
[3] = tested on: A549 lung cancer cell line; details: Homo sapiens, A549, 120 h, read-out: Cell Line GI50 Range A-549
[4] = tested on: MDA-MB-468 basal breast cancer cell line; details: Homo sapiens, MDA-MB-468, 120 h
[5] = tested on: MCF-7 luminal breast cancer cell line; details: Homo sapiens, MCF7, 120 h
[6] = read-out: Cell Line GI50 Range HCC-1954
[7] = read-out: Cell Line GI50 Range MDA-MB-468
[8] = read-out: Cell Line GI50 Range MCF-7
[9] = read-out: Cell Line GI50 Range HCC-1954, HCC1954 basal breast cancer cell line, SRB assay, 5 days
[10] = read-out: Cell Line GI50 Range MCF-7, MCF-7 luminal breast cancer cell line, SRB assay, 5 days
[11] = read-out: Cell Line GI50 Range MDA-MB-468, MDA-MB-468 basal breast cancer cell line, SRB assay, 5 days

| GI50 [1] [µM] | GI50 [2, 6] [µM] | GI50 [3] [µM] | GI50 [4, 7] [µM] | GI50 [5, 8] [µM] | GI50 [2, 9] [µM] | GI50 [5, 10] [µM] | Compound | GI50 [4, 11] [µM] |
| --- | --- | --- | --- | --- | --- | --- | --- | --- |
| 1 to 10 | 1 to 10 | 0.1 to 1 | 0.1 to 1 | 0.1 to 1 | – | – | CN1CCN(c2ccc(-c3n[nH]c4cc([C@@H]5C[C@@]56C(=O)Nc5ccc(OC(F)F)cc56)ccc34)cn2)CC1 (relative stereo) [Example A209, 1R*,2S*1-5′-(difluoromethoxy)-2-(3-(6-(4-methylpiperazine-1-yl)pyridine-3-yl)-1H-indazol-6-yl) spiro[cyclopropane-1,3′-indolin]-2′-one 2,2,2-trifluoroacetate] | – |
| 1 to 10 | – | 0.1 to 1 | 0.1 to 1 | – | 1 to 10 | 0.1 to 1 | COc1ccc2c(c1)[C@]1(C[C@H]1c1ccc3c(C#Cc4ccc(CN5CCOCC5)cc4)n[nH]c3c1)C(=O)N2 (relative stereo) [Example A138, (1R*,2S*)-5′-methoxy-2-(3-((4-(morpholinomethyl)phenyl)ethynyl)-1H-indazol-6-yl)spiro[cyclopropane-1,3′-indolin]-2′-one 2,2,2-trifluoroacetate] | – |
| < 0.1 | – | < 0.1 | < 0.1 | – | 0.1 to 1 | < 0.1 | COc1ccc2c(c1)[C@]1(C[C@H]1c1ccc3c(/C=C/c4csc(CN(C)C)c4)n[nH]c3c1)C(=O)N2 (relative stereo) [Example A181, (1R*,2S*)-2-(3-4E)-2-(5-((dimethylamino)methyl)thiophen-3-yl)vinyl)-1H-indazol-6-yl)-5′-methoxyspiro[cyclopropane-1,3′-indolin]-2′-one 2,2,2-trifluoroacetate] | – |
| 0.1 to 1 | 1 to 10 | < 0.1 | < 0.1 | 0.1 to 1 | – | – | CN(C)Cc1cccc(/C=C/c2n[nH]c3cc([C@@H]4C[C@@]45C(=O)Nc4ccccc45)ccc23)c1 (relative stereo) [Example A162, (1R*,2S*)-(E)-2-(3-(3-((dimethylamino)methyl)styryl)-1H-indazol-6-yl)spiro[cyclopropane-1,3′-indolin]-2′-one 2,2,2-trifluoroacetate] | – |
| < 0.1 | – | < 0.1 | < 0.1 | – | 1 to 10 | < 0.1 | COc1ccc2c(c1)[C@]1(C[C@H]1c1ccc3c(/C=C/c4ccc(CN5CC[C@@H](F)C5)cc4)n[nH]c3c1)C(=O)N2 [Example A112, (1R,2S)-(E)-2-(3-(4-(((R)-3-fluoropyrrolidin-1-yl)methyl)styryl)-1H-indazol-6-yl)-5′-methoxyspiro[cyclopropane-1,3′-indolin]-2′-one 2,2,2-trifluoroacetate] | – |
| < 0.1 | 1 to 10 | < 0.1 | < 0.1 | 1 to 10 | – | – | CCN(CC)Cc1c(F)cc(/C=C/c2n[nH]c3cc([C@@H]4C[C@@]45C(=O)Nc4ccc(OC)cc45)ccc23)cc1F [Example A146, (1R,2S)-(E)-2-(3-(4-((diethylamino)methyl)-3,5-difluorostyryl)-1H-indazol-6-yl)-5′-methoxyspiro[cyclopropane-1,3′-indolin]-2′-one 2,2,2-trifluoroacetate] | – |
| 1 to 10 | > 10 | 1 to 10 | 1 to 10 | 1 to 10 | – | – | CN1CCN(Cc2ccc(-c3n[nH]c4cc([C@@H]5C[C@@]56C(=O)Nc5ccccc56)ccc34)cc2)CC1 (relative stereo) [Example A155, (1R*,2S*)-2-(3-(4-((4-methylpiperazin-1-yl)methyl)phenyl)-1H-indazol-6-yl)spiro[cyclopropane-1,3′-indolin]-2′-one bis-2,2,2-trifluoroacetate] | – |

The remaining lines, values behind:

| Compound | GI50 [1] [µM] | GI50 [2, 6] [µM] | GI50 [3] [µM] | GI50 [4, 7] [µM] | GI50 [5, 8] [µM] | GI50 [2, 9] [µM] | GI50 [5, 10] [µM] | GI50 [4, 11] [µM] |
| --- | --- | --- | --- | --- | --- | --- | --- | --- |
| COc1ccc2c(c1)C1(CC1c1ccc3c(I)n[nH]c3c1)C(=O)N2 (single isomer, unassigned) [Example A6, (1R*,2S*)- and (1R*,2R*)-2-(3-iodo-1H-indazol-6-yl)-5′-methoxyspiro-[cyclopropane-1,3′-indolin]-2′-one] | 0.1 to 1 | 0.1 to 1 | 0.1 to 1 | 0.1 to 1 | 0.1 to 1 | – | – | – |
| COc1ccc2c(c1)[C@@]1(C[C@@H]1c1ccc3c(-c4ccc(N5CCNCC5)cc4)n[nH]c3c1)C(=O)N2 [Example A50, (1S,2R)-5′-methoxy-2-(3-(4-(piperazin-1-yl)phenyl)-1H-indazol-6-yl)spiro[cyclopropane-1,3′-indolin]-2′-one 2,2,2-trifluoroacetate] | 1 to 10 | – | 0.1 to 1 | – | 1 to 10 | > 10 | – | 0.1 to 1 |
| COc1ccc2c(c1)[C@]1(C[C@H]1c1ccc3c(C#Cc4cccnc4)n[nH]c3c1)C(=O)N2 (relative stereo) [Example A52, (1R*,2S*)- and (1R*,2S*)-5′-methoxy-2-(3-(pyridin-3-ylethynyl)-1H-indazol-6-yl)spiro[cyclopropane-1,3′-indolin]-2′-one] | 1 to 10 | – | 0.1 to 1 | 1 to 10 | – | 1 to 10 | 1 to 10 | – |
| COc1ccc2c(c1)[C@]1(C[C@H]1c1ccc3c(-c4ccc(N5CCN(C)CC5)cc4)n[nH]c3c1)C(=O)N2 (relative stereo) [Example A38, (1R*,2S*)-5′-Methoxy-2-(3-(4-(4-methylpiperazin-1-yl)phenyl)-1H-indazol-6-yl)spiro[cyclopropane-1,3′-indolin]-2′-one] | 0.1 to 1 | – | < 0.1 | – | 0.1 to 1 | > 10 | – | < 0.1 |
| CN1C(=O)[C@@]2(C[C@H]2c2ccc3c(/C=C/c4ccc(CN5CCCCC5)cc4)n[nH]c3c2)c2ccccc21 [Example A94, (1R,2S)-(E)-1′-methyl-2-(3-(4-(piperidin-1-ylmethyl)styryl)-1H-indazol-6-yl)spiro[cyclopropane-1,3′-indolin]-2′-one hydrochloride] | < 0.1 | 0.1 to 1 | < 0.1 | < 0.1 | < 0.1 | – | – | – |
| COc1ccc2c(c1)[C@]1(C[C@H]1c1ccc3c(-c4ccc(N5CCOCC5)nc4)n[nH]c3c1)C(=O)N2 (relative stereo) [Example A20, (1R*,2S*)*-5′-Methoxy-2-(3-(6-morpholinopyridin-3-yl)-1H-indazol-6-yl)spiro[cyclopropane-1,3′-indolin]-2′-one] | > 10 | 1 to 10 | 1 to 10 | 0.1 to 1 | 1 to 10 | – | – | – |
| COc1ccc2c(c1)[C@]1(C[C@H]1c1ccc3c(-c4ccc(N5CCC(O)CC5)nc4)n[nH]c3c1)C(=O)N2 (relative stereo) [Example A117, (1R*,2S*)-2-(3-(6-(4-hydroxypiperidin-1-yl)pyridin-3-yl)-1H-indazol-6-yl)-S-methoxyspiro[cyclopropane-1,3′-indolin]-2′-one 2,2,2-trifluoroacetate] | > 10 | – | 1 to 10 | 0.1 to 1 | – | > 10 | 1 to 10 | – |
| CN1CCN(c2ccc(-c3n[nH]c4cc([C@@H]5C[C@@]56C(=O)Nc5ccc(Br)cc56)ccc34)cn2)CC1 (relative stereo) [Example A19, (1R*,2S*)-5′-bromo-2-(3-(6-(4-methylpiperazin-1-yl)pyridin-3-yl)-1H-indazol-6-yl)spiro[cyclopropane-1,3′-indolin]-2′-one] | 1 to 10 | – | 0.1 to 1 | 0.1 to 1 | – | 0.1 to 1 | 0.1 to 1 | – |

Counter-ions that a name gives are not always drawn. Like-named read-outs stand apart in the source and are kept apart here.
